# Results taken from PubChem BioAssay AID485294 (National Center for Advancing Translational Sciences (NCATS), 2010).
# Screen size: about 370,000 compounds; about 150 (0.041%) were called active. This list was built around the results that the source calls inconclusive (neither active nor inactive); the mix of calls is not that of the screen. The call rests on the fitted dose curve; in most records, active means well fitted inhibition curve with a large enough effect; inconclusive means small, poorly fitted or top-dose-only effect; inactive means flat fitted curve, though single readings scatter. Potencies of inconclusive entries are left out as doubtful fits.
# Molecular target: Beta-lactamase (Escherichia coli (strain K12)) (UniProt P00811)
# Assay: qHTS Inhibitors of AmpC Beta-Lactamase (assay with detergent); further: nearly all actives have a fitted effect of over 25% in size;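 on activity change, negative = inhibition: 0% = no-compound wells and -100% = no-enzyme wells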
# Conditions: AmpC hydrolysis of nitrocefin, absorbance 480 nm, 0.01% Triton; activity change, negative = inhibition: at 114 µM (top of the series)
# Protocol: NIH Molecular Libraries Probe Production Network [MLPCN] NIH Chemical Genomics Center [NCGC] Assay Provider: Professor Brian Shoichet, UCSF Assay Overview: This aggregation profiling approach exploits the sensitivity of aggregate formation to detergent. Inhibition of b-lactamase is measured in the presence and absence of 0.01% Triton X-100. This particular assay had the prescence of 0.01% Triton X-100. See Pubchem assay "Promiscuous and Specific Inhibitors of AmpC Beta-Lactamase (assay without detergent)" for related screen. Compounds that inhibit only in the absence of detergent are considered likely promiscuous aggregators. A screen of 1,030 compounds was performed in Brian Shoichet's lab in 96-well format. AmpC activity was measured by following the absorbance at 480 nm. Nitrocefin is a chromogenic substrate: while nitrocefin is yellow (lmax 390 nm), the product of its hydrolysis is red (lmax 486 nm, 17,000 M-1). AmpC beta lactamase was provided by Shoichet Lab, UCSF.
# Buffer: 20 mM phosphate buffer, pH 7.0 Triton X-100: No Detergent screen: 0.0001%, Detergent screen: 0.01%. Reagents/Controls: Buffer in columns 3 and 4 as negative control (no enzyme). 5.3 nM AmpC in columns 1, 2, 5-48. Titration of UCSF compound 9 control (from 10 mM, then 1:2) pin-transferred to column 2. Column 1 is neutral (100% activity). Assay Steps: Six uL of reagents were dispensed to 1536-well Greiner black clear bottom plates. Compounds and controls (23 nL) were transferred via Kalypsys PinTool. The plates were incubated for 15 min at room temperature, and then 2 uL of 800 uM solution of nitrocefin was added to start the reaction. The plates were immediately transferred to and read every 20 seconds for 4 min on ViewLux (Perkin-Elmer) High-throughput CCD imager using 480 nm absorbance protocol. During dispense, reagent bottles were kept submerged into 4 deg C water bath. Keywords: NIH Roadmap, MLSCN, MLI, MLSMR, qHTS, NCGC, AmpC Beta-Lactamase, Aggregation
# Potency means the concentration at half of the fitted maximal effect; tags describe the fitted curve by direction and shape.
# Chain of UniProt P00811 (P00811 whole entry, looked up): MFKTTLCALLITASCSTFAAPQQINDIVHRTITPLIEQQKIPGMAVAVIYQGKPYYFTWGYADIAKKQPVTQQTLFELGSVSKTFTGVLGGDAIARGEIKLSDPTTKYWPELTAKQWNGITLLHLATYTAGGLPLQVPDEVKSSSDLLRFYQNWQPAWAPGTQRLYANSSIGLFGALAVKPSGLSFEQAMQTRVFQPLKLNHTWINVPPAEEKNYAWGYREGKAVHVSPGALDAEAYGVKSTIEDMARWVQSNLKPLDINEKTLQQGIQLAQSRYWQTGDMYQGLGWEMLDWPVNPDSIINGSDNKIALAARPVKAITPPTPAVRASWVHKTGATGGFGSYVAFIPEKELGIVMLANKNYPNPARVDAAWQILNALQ
SMILES,Potency,"activity change, negative = inhibition"
O=C(NNC(=S)NC(=O)c1cccnc1)c1ccccc1,"inconclusive [inhibitor, partial curve, poor fit]",–
N#CC1=C(N)Oc2n[nH]c(-c3cccs3)c2C1c1cccs1 (stereo not drawn),"inconclusive [inhibitor, full curve, poor fit]",–
CCn1cc(C(=O)N[C@H](C)c2ccccc2)c(=O)c2cc(F)c(N3CCN(C)CC3)cc21,"inconclusive [inhibitor, full curve, poor fit]",–
CCC(C)n1[nH]c(=O)cc1N (stereo not drawn),"inconclusive [inhibitor, partial curve, poor fit]",–
CN(C)CC(C)(C)CNC(=O)C1CCN(CCCc2ccccc2)CC1,"inconclusive [inhibitor, partial curve, poor fit]",–
CCC(C)Nc1nc(SC(C(C)=O)C(C)=O)nc(N(C)C)n1 (stereo not drawn),"inconclusive [inhibitor, full curve, poor fit]",–
O=C(Nc1cc(C(F)(F)F)ccc1N1CCCCC1)c1ccc(Br)o1,"inconclusive [inhibitor, full curve]",–
O=C(Cn1cnc2c(nnn2Cc2ccccc2)c1=O)NCC1CCCO1 (stereo not drawn),"inconclusive [inhibitor, full curve]",–
N#Cc1c2nc3ccccc3nc2n2cc(NC(=O)c3ccc(F)cc3)ccc12,"inconclusive [inhibitor, full curve, poor fit]",–
CCOC(=O)Cc1csc(NC(=O)CSc2nnc3ccccn23)n1,"inconclusive [inhibitor, full curve, poor fit]",–
COc1ccc(-c2nnc3sc(-c4ccc(Br)o4)nn23)cc1OC,"inconclusive [inhibitor, partial curve]",–
CCOc1ccccc1C(=O)Nc1cc(Cl)ccc1O,–,inactive: 1.87%
CCc1nn(CC(=O)NCc2ccccc2Cl)c(=O)c2cc3ccccc3n12,–,inactive: 15.8%
COc1ccccc1-c1cc(C(F)(F)F)nc(N2CCN(c3ccc(F)cc3)CC2)n1,–,inactive: 1.13%
Cc1cc(C)cc(NC(=O)C(=O)NCCCN2CCOCC2)c1,"inconclusive [inhibitor, full curve, poor fit]",–
COC(=O)Cc1c(C)c2ccc(OCC(=O)N3CCC(C)CC3)c(C)c2oc1=O,–,inactive: -7.65%
CCCCCCP(=O)(O)c1ccccc1,"inconclusive [inhibitor, partial curve]",–
CCOc1ccc(N(Cc2cc3cc(OC)ccc3[nH]c2=O)C(=O)C2CCCO2)cc1 (stereo not drawn),"inconclusive [inhibitor, full curve, poor fit]",–
